The source of these data is PubChem BioAssay AID1240 (Sanford-Burnham Center for Chemical Genomics, 2008).

Screen size: about 50,000 compounds; about 800 (1.6%) showed an effect of 50% or more. The list shows a part of the results.

The target of this assay is Bcl-2-like protein 10 (Homo sapiens) (UniProt Q9HD36). Description: TR3 peptide-Bcl-B binding displacers, biochemical primary FP assay, phenotype converters (AID 1240).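 Also: 0% = Bcl-B with tracer peptide and DMSO and 100% = tracer peptide lacking Bcl-B.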 The note with it: GST-Bcl-B / FITC-TR3 peptide fluorescence polarization; stronger effect = higher value; compound at 3.75 mg/L. On the technique in general: Fluorescence polarisation rises when a labelled molecule tumbles more slowly, as on binding a larger partner.
UniProt Q9HD36, sequence (Q9HD36 whole entry, looked up): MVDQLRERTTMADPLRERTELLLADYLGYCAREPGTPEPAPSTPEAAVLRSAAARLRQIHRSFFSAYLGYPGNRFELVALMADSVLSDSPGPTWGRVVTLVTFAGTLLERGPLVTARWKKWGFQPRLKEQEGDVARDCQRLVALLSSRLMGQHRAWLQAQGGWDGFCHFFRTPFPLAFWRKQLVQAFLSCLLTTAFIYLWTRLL
Consider `Cc1ccsc1/C=C1\SC(=O)NC1=O`, for which the displacement was 6.2%.

Turning to `C#Cc1cccc(N2C(=O)c3ccc(Oc4ccc([N+](=O)[O-])cc4)cc3C2=O)c1`, the displacement was 2.7%.

`COc1ccc(OC)c(C2/C(=C(\O)c3ccc(Cl)cc3)C(=O)C(=O)N2CCCCCC(=O)O)c1` (configuration not stated): the displacement worked out at 2.1%.

On to `CCOC(=O)c1cncc(NC(=O)c2ccccc2)c1`, for which the displacement is -16.4%.

For the compound `CCOc1cc(C=O)ccc1OC(C)C`, the displacement was -9.1%.

As for `CC(C)OC(=O)c1cc(O)c(O)c(O)c1`, the displacement was -1.3%.

With `CC(C)OC(=O)c1c(NC(=O)c2cccc(OC(C)C)c2)sc2c1CCC2`, the displacement is -9.7%.

With `O=C(O/N=C(\c1ccncc1)c1ccc([N+](=O)[O-])cc1)c1ccc(Oc2ccccc2)cc1`, the displacement amounted to 3.3%.

With `COc1ccc(/C(C)=N/NC(=O)c2cc(C)[nH]n2)cc1[N+](=O)[O-]`, the displacement was -12.3%.

In the case of `CCCCOC(=O)c1ccc2c(c1)C1C=CCC1C(c1ccc([N+](=O)[O-])cc1)N2` (configuration not stated), the displacement came out at 6.6%.

As for `O=C(N/N=C/c1ccc2c(c1)OCO2)c1ccccn1`, the displacement was found to be 13.2%.

Consider `COc1ccc(C2C(C(=O)OC3CCCCC3)=C(C)NC3=C2C(=O)CCC3)c(OC)c1` (configuration not stated), for which the displacement was -10.6%.

With `N#CC(C(=O)Nc1ccccn1)=C1CCCCCC1`, the displacement was -3%.

With `O=C1C2C(C(=O)N1c1nccs1)C1C=CC2C12CC2` (configuration not stated), the displacement is -0.7%.

For the compound `CCN(CC)CCCNS(=O)(=O)c1ccc(OC)cc1`, the displacement was -5.5%.

Consider `COc1ccc(C)cc1NCc1ccncc1`, for which the displacement was found to be 1.9%.

`O=C1CC(N2CCC(Cc3ccccc3)CC2)C(=O)N1CCc1ccccc1` (configuration not stated): the displacement came to 12.6%.

Regarding `Nc1nc(Oc2ccccc2)c(Br)c(=O)[nH]1`, the displacement amounted to 3.4%.

Regarding `CC(=O)OCCCNC(=O)/C(=C\c1ccc2c(c1)OCO2)NC(=O)c1ccco1`, the displacement was -5.3%.

Consider `Cc1ccc(-c2nc3cc(NC(=O)C(C)C)ccc3o2)cc1`, for which the displacement came to 8.2%.

For `Cc1ccc(/C(N)=N/OC(=O)c2cccc(F)c2)cc1`, the displacement amounted to 14.9%.

In the case of `O=S(=O)(/C=C/c1ccccc1)N1CCN(c2ccccc2)CC1`, the displacement was -4.5%.

Turning to `Cc1ccc(N2C(=O)CC(NC3CCCCCC3)C2=O)cc1` (configuration not stated), the displacement amounted to 20%.

Regarding `COc1ccc(-c2ccc(/C=C3/C(=O)NC(=O)N(c4ccccc4)C3=O)o2)c([N+](=O)[O-])c1`, the displacement is 78.3%.

As for `CCOC(=O)c1ccc(NC(=O)COc2ccc(Br)cc2)cc1`, the displacement amounted to 4.4%.

For the compound `C/C(=C\C(=O)c1ccc(Br)cc1)Nc1ccccc1C`, the displacement was 0.8%.

On to `CN1C(=O)/C(=C\c2ccccc2OCCOc2ccc([N+](=O)[O-])cc2)SC1=S`, for which the displacement is 133%.

In the case of `COc1ccc(NC(=O)CN(CCc2ccccc2)S(=O)(=O)c2ccc(OC)cc2)cc1`, the displacement came to 8.7%.

Regarding `CCc1cc(C)cc(OCCOc2ccc(C=C3C(=O)NC(=O)NC3=O)cc2)c1`, the displacement is -11.3%.

For the compound `Cc1[nH]n(-c2ccccc2)c(=O)c1N=Nc1nccs1`, the displacement is -10.2%.

Take `CCOC(=O)CNC(=O)CCCOc1ccc(Cl)cc1Cl`: the displacement was -3.2%.

Take `CC(C)N(Cc1ccccc1)C(=O)CCCOc1ccc(Cl)cc1Cl`: the displacement was 15.9%.

In the case of `Cc1ccccc1OCC(=O)Nc1ccc2c3c(cccc13)CC2`, the displacement was 107%.

As to `CS(=O)(=O)N(Cc1ccccc1)c1ccccc1C(=O)Nc1ccc(Cl)c(C(F)(F)F)c1`, the displacement worked out at 6.3%.

Turning to `O=C(Nc1c(F)c(F)c(F)c(F)c1F)C1CCCO1` (configuration not stated), the displacement is 2.5%.

As to `Cc1cc(NC(=O)Cc2cccs2)ccc1NC(=O)c1cccs1`, the displacement amounted to 0.5%.

Turning to `COc1cc(/C=C2/C(=O)NN(c3ccccc3)C2=O)ccc1OC(C)=O`, the displacement was -3.6%.

For `Cc1onc(-c2ccccc2Cl)c1C(=O)Nc1ccc2ccccc2c1`, the displacement came to 3.1%.

For `Cc1ccc(N(CC(=O)N/N=C/c2ccccc2O)S(=O)(=O)c2ccccc2)cc1`, the displacement was -3.1%.

As to `COC(=O)c1ccc(COc2ccc3c(oc(=O)c4ccccc43)c2C)cc1`, the displacement came out at 8.2%.

For `CN(C)c1nccc(NCc2ccccc2)c1C#N`, the displacement is -4.9%.

For `Nc1nnc(SCC(=O)Nc2ccc3nc(SCC(=O)Nc4ccccc4)sc3c2)s1`, the displacement was -17.5%.

As for `C=CCN1C(=O)/C(=C\c2cccc(Cl)c2)C(=O)NC1=S`, the displacement amounted to 3.9%.

`CCOC(=O)C(CCCOc1ccccc1F)C(=O)OCC`: the displacement was -3.3%.

On to `O=C(NCc1ccccc1Cl)C(=O)Nc1cccc(Cl)c1Cl`, for which the displacement turned out to be 0.9%.

On to `CCOC(=O)c1c(NC(=O)CSc2nc3ccccc3[nH]2)sc2c1CCCC2`, for which the displacement was -17.3%.

As to `Cc1ccc(N(CC(=O)Nc2ccc(Cl)cc2C)S(=O)(=O)c2ccc(F)cc2)cc1`, the displacement was -13.9%.

Take `COc1ccccc1C(=O)N[C@H](C)c1ccccc1`: the displacement is -0.6%.

Regarding `O=C(CC1S\C(=N/N=C/C=C/c2ccccc2)NC1=O)Nc1ccc(C(=O)O)cc1` (configuration not stated), the displacement came to 41.6%.

Turning to `COc1cccc(CN2CCN(C(=O)c3ccccc3)CC2)c1OC`, the displacement was -2.8%.

Take `O=C(c1cnn2c(-c3ccccc3)cc(-c3ccccc3)nc12)N1CCOCC1`: the displacement is 16.8%.

With `CCOc1ccc(NC(=O)c2cccc(F)c2)cc1`, the displacement was -11.1%.

As for `O=C1NN(c2ccccc2)C(=O)/C1=C/c1cccc2ccccc12`, the displacement is 5.1%.

Take `Cc1cccn2c(=O)c(/C=C3\SC(=S)N(CCc4ccccc4)C3=O)c(NCCCn3ccnc3)nc12`: the displacement is 10.4%.

For `O=C1NN(c2ccccc2)C(=O)/C1=C/c1ccc(OCc2ccccc2F)cc1`, the displacement was 13.6%.

Regarding `CC(C)(C)C1CCc2c(sc(NC(=O)C3CCCO3)c2C(N)=O)C1` (configuration not stated), the displacement was -7.5%.

Consider `C=CCn1c(CC)nc2ccccc21`, for which the displacement was 7.9%.

Take `COc1ccc(OC)c(COc2ccc(-c3nc4sc5c(c4c(=O)[nH]3)CCCC5)cc2)c1`: the displacement turned out to be 13.6%.

With `Cc1cc(=O)[nH]c(N/N=C/c2ccccc2Cl)n1`, the displacement is -2.8%.

As to `O=[N+]([O-])c1ccccc1CNC1CCCCCC1`, the displacement is 2.1%.

`COc1ccc(C(=O)NC(=S)Nc2ccccc2Cl)cc1`: the displacement came to 4.8%.

On to `Cc1cc(Br)cc(C)c1NC(=O)c1cc2ccccc2o1`, for which the displacement came to 10.9%.

As to `CCCOC(=O)c1ccc(NC(=O)c2cccc([N+](=O)[O-])c2)cc1`, the displacement amounted to 15.5%.

Turning to `O=C(Nc1ccc(Cl)cc1)O/N=C\c1c[nH]c2ccccc12`, the displacement was -0.5%.

Take `O=[N+]([O-])c1ccc(NCCNS(=O)(=O)c2ccc(Cl)cc2)c(Cl)c1`: the displacement was determined as 2.3%.

With `CCOc1ccc(C(=O)NC(C)C2COc3ccccc3O2)cc1` (configuration not stated), the displacement came to 1.9%.

Consider `CC(C)c1ccc(N2C(=O)CSC23C(=O)Nc2ccccc23)cc1` (configuration not stated), for which the displacement was 2%.

As to `COc1ccccc1C(=O)Nc1cc(C)cc(C)c1`, the displacement came to 11.4%.

For the compound `O=C(Nc1cc(C(F)(F)F)ccc1Cl)c1cccs1`, the displacement turned out to be 7.2%.

Regarding `Cc1ccc(S(=O)(=O)N2CCN(c3ccc([N+](=O)[O-])c(NC4CC4)c3)CC2)cc1`, the displacement was 14.1%.

Turning to `CCOC(=O)C(=CNc1cc(C)ccc1O)C(=O)OCC`, the displacement was -1.7%.

For the compound `C=CCc1ccc(OCC(O)CN2CC(C)OC(C)C2)c(OC)c1` (configuration not stated), the displacement was -10%.

For `CCOc1c(Br)cc(/C=C2\C(=O)NC(=O)N(c3cccc(C)c3)C2=O)cc1OC`, the displacement is 12.1%.

For the compound `Brc1ccc(-c2nnc(SCCC3OCCCO3)o2)cc1`, the displacement came to 13.5%.

Turning to `N#Cc1cccc(NC(=O)Nc2ccc(Cl)cc2)c1`, the displacement was -5.3%.

Turning to `Cc1cc([N+](=O)[O-])cc2c1NC(=O)C2=O`, the displacement was -5.2%.

`CC(=O)c1ccc(NCCC(=O)c2cccs2)cc1`: the displacement is -17.9%.

Turning to `COc1cc(CN2CCN(C3CCCCC3)CC2)cc(OC)c1O`, the displacement is -9.5%.

For `O=C(c1ccc2ccccc2n1)N1CCOCC1`, the displacement was found to be 10.4%.

As for `Cc1cc2ncn(S(=O)(=O)c3ccc(Cl)c([N+](=O)[O-])c3)c2cc1C`, the displacement is -5.3%.

`CCN1C(=O)C(=O)c2cc(Br)ccc21`: the displacement was found to be 0.4%.

`C=CCOC(=O)C1=C(C)NC(C)=C(C(=O)OCC=C)C1c1ccc(O)c(OCC)c1`: the displacement was 10.8%.

Regarding `Cc1ccc(N2C(=O)CC(NCc3cccc4ccccc34)C2=O)cc1` (configuration not stated), the displacement came out at 2.8%.

For the compound `CN(C)c1ccc(/C=C2\N=C(c3ccc([N+](=O)[O-])cc3)OC2=O)cc1`, the displacement is -8.6%.

On to `Cc1ccc(-n2nc3cc(C)c(NC(=O)c4cccc(Cl)c4)cc3n2)cc1`, for which the displacement is -4.2%.

As to `O=C(NNc1nc(-c2ccccc2)c2cc(Br)ccc2n1)c1ccccc1Cl`, the displacement is -19.2%.

Turning to `C=CCc1cc(/C=C2\C(=O)NC(=O)N(c3ccc(Cl)cc3)C2=O)cc(OC)c1OCC(=O)OC`, the displacement was -14.3%.

For the compound `CC(=O)c1cccc(NC(=O)C(C)Sc2ccc(Cl)cc2)c1` (configuration not stated), the displacement turned out to be 3.2%.

For the compound `CCOC(=O)c1c(-c2ccccc2)csc1NC(=O)C(C)C`, the displacement was 5.5%.

On to `COC(=O)c1c(C)oc2cc(Br)c(OC(=O)c3ccc([N+](=O)[O-])cc3)cc12`, for which the displacement turned out to be 9.3%.

With `CN1CCC(=NNC(=O)CN(c2cccc(Cl)c2)S(=O)(=O)c2ccccc2)CC1`, the displacement worked out at 0.4%.

Consider `O=C(N/N=C\c1cc(Cc2ccccc2Cl)ccc1O)c1cncc(Br)c1`, for which the displacement is -9.4%.

For `OC(Cc1ccccc1)(c1ccc(F)cc1)C(CN1CCOCC1)c1ccccc1` (configuration not stated), the displacement came to 2.8%.

For `O=C(CC(c1ccccc1)c1ccccc1)Nc1ccc2ccccc2c1`, the displacement is -7.3%.

Turning to `COc1ccc(/C=C2\SC(=S)N(CC(=O)Nc3nccs3)C2=O)cc1OC`, the displacement is 39.3%.

As to `Fc1ccccc1OCCOCCN1CCCCC1`, the displacement is -2.6%.

Take `CCOc1cccc(N2C(=O)/C(=C/c3cc(Br)c(O)c(OCC)c3)C(=O)NC2=S)c1`: the displacement is 3.1%.

On to `Cc1nn(-c2ccccc2)c(C)c1/C=N\N1CCN(c2ccccc2)CC1`, for which the displacement is -0.3%.

Turning to `N#C/C(=C/c1ccc(-c2ccc3c(c2)C(=O)NC3=O)o1)C(N)=O`, the displacement was found to be 140%.

As to `O=C1NCC(O)=C1C=NCc1ccc(Cl)cc1`, the displacement is -8.1%.

For the compound `COc1ccc(CCn2c(O)c(C3=c4cc(Br)ccc4=NC3=O)sc2=S)cc1OC`, the displacement was -11.3%.

Consider `COc1ccc(CCNC2CC(=O)N(c3ccccc3)C2=O)cc1OC` (configuration not stated), for which the displacement was -9.8%.

In the case of `COc1cc(/C=N/n2cnnc2)cc(I)c1O`, the displacement came to 0.3%.

For `O=[N+]([O-])c1cc(S(=O)(=O)Nc2ccc(Cl)cc2)ccc1Cl`, the displacement was 11.1%.

Take `Cc1cc2oc(=O)cc(C)c2cc1NC(=O)COc1ccccc1`: the displacement came out at 9.8%.

Consider `Cc1ccsc1/C=c1\sc2nc3ccccc3n2c1=O`, for which the displacement was -8.5%.

As for `CCOc1cc(/C=N/NC(=O)c2cc(-c3ccc(Cl)cc3)n[nH]2)ccc1O`, the displacement was -14.2%.

Turning to `CC(CC(=O)Nc1ccccc1)c1ccccc1` (configuration not stated), the displacement came out at 11.4%.

With `Cc1ccc(-n2ncnc2-c2ccccc2C)cc1Cl`, the displacement was -8.7%.

On to `COC(=O)C(NS(=O)(=O)c1ccccc1)C(C)C` (configuration not stated), for which the displacement is -12%.

Consider `COc1ccc2nc(NC(=O)Cc3ccccc3)sc2c1`, for which the displacement is 3%.

Turning to `Cc1ccc(C(=O)Nc2ccccc2C(=O)NCCO)cc1`, the displacement was determined as 8.5%.
